In paper PMC4336329 (PLoS ONE, 2015):
In all, about 310,000 compounds went through this assay and about 2,200 (0.71%) showed an effect of 50% or more. Effects have a minus sign here. The list shows a part of the results.

The molecules below were run against human ether-à-go-go-related gene (hERG) potassium channel (human, UniProt Q12809) (assay: primary screen, population patch clamp on CHO cells stably expressing hERG).
Chain of human ether-à-go-go-related gene (hERG) potassium channel (Q12809 whole entry, looked up): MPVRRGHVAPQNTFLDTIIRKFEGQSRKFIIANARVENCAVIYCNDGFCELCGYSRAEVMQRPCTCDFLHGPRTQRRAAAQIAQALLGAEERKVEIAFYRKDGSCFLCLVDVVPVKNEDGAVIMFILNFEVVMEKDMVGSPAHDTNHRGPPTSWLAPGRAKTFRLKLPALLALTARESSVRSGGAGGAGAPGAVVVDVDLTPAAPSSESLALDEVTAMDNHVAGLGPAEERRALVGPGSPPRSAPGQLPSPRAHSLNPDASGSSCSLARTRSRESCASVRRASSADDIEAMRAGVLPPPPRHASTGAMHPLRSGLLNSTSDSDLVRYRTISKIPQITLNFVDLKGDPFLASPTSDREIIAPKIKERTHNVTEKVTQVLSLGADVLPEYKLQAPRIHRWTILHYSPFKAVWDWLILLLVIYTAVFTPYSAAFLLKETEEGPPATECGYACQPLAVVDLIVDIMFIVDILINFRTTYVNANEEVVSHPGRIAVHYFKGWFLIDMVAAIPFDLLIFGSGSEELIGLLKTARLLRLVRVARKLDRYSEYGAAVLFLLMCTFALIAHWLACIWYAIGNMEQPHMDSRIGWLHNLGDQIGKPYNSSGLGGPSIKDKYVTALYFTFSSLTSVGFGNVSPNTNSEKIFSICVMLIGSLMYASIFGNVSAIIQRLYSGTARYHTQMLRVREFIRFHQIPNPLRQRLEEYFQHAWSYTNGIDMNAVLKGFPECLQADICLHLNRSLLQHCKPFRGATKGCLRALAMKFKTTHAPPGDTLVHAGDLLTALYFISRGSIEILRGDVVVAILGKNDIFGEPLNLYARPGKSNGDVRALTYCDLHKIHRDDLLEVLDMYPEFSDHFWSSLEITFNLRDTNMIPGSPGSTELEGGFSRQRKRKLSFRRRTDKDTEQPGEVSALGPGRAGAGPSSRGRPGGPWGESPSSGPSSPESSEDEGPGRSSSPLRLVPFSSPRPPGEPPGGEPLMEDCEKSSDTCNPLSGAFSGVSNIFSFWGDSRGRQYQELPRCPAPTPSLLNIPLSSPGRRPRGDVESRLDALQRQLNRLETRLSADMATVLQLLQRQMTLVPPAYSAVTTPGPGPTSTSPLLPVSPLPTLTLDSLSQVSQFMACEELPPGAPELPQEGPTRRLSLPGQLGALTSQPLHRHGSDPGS

Row | SMILES | hERG current change (%, negative = inhibition) at 1uM [%]
1 | COc1ccc(C(=O)NCCCN2CCOCC2)cc1 | 4.24
2 | CC1CCCC(C)N1CC(O)COCc1ccccc1F.Cl (stereo not shown) | 14.2
3 | CCOC(=O)C1CCN(C(=O)CCc2nc3ccccc3[nH]2)CC1 | 5.1
4 | CCN(CC)S(=O)(=O)c1ccc(C)c(NC(=O)CNc2cccc(S(=O)(=O)N3CCOCC3)c2)c1 | -14.2
5 | CCOC1=NN(c2ncc(C(F)(F)F)cc2Cl)C(=O)/C1=C/N(C)C | 11.3
6 | Cc1ccsc1C(=O)Nc1cc(C(C)(C)C)nn1-c1ccccc1 | -4.93
7 | Cc1sc(NC(=O)c2cccnc2)nc1-c1ccccc1 | 20.9
8 | C/C(CC(=O)Nc1ccc2c(c1)OCCO2)=N\NC(=O)Cc1ccc(Cl)cc1 | 13.3
9 | CCNC(=O)CSc1nnc(-c2cccs2)o1 | 12.4
10 | CCCCNC(=S)Nc1ccc2nc(N3CCN(CC)CC3)cc(C)c2c1 | -12.7
11 | O=C(Nc1ccc(N2CCCCC2)cc1)c1cc(S(=O)(=O)N2CCOCC2)ccc1F | -8.27
12 | CCOc1ccccc1N(CC(=O)Nc1ccc(OC)c(OC)c1)S(=O)(=O)c1ccccc1 | 9.89
13 | Cc1nn(-c2ccccc2)c(Cl)c1C(=O)NCc1cccs1 | 6.11
14 | CC1CCN(C(=O)CSc2ccc(-c3ccc4c(c3)OCCO4)nn2)CC1 | 5.8
15 | CC(=O)NC(C(=O)OCC(=O)N(c1ccccc1)c1ccccc1)C(C)C (stereo not shown) | 11.8
16 | COc1ccc(NC(=O)CSc2nnc(Cc3cccs3)n2C)cc1 | 8.21
17 | CCCc1nnc(SCC(=O)Nc2nnc(CC)s2)n1CC1CCCO1 (stereo not shown) | 14.6
18 | COc1cc(N)c(Cl)cc1C(=O)OCC(=O)NC1CCCC1 | 14.8
19 | CC(=O)NC1=NN(C(C)=O)C(C)(c2cccnc2)S1 (stereo not shown) | 14.4
20 | CC1=C(C(=O)Nc2ccccc2C(=O)NC2CCCCC2C)SCCO1 (stereo not shown) | 6.67

Row | SMILES | hERG current change (%, negative = inhibition) at 1uM [%]
21 | COc1cc(/C=C2\SC(=O)N(c3ccc(O)cc3)C2=O)cc(OC)c1OC | 8.05
22 | Cc1ccc(S(=O)(=O)N2CCC(C(=O)NCc3ccccc3CN3CCCC3)CC2)cc1C | -21.2
23 | Cc1ccc(Cn2nnc3c(=O)n(Cc4cc(C)ccc4C)cnc32)cc1 | 14.6
24 | Cn1c(C(=O)OCC(=O)NCC2CCCO2)cc2sccc21 (stereo not shown) | 7.49
25 | COc1ccc(C2C(C(=O)Nc3ccc(OC)c(OC)c3)c3ccccc3C(=O)N2C)cc1 (stereo not shown) | 12
26 | NC1=NC[C@@H](Cc2ccc(O)cc2)N1CC1CCCCC1 | 11.1
27 | O=S(=O)(NCc1ccccc1)c1cccc2nsnc12 | 8.07
28 | CCN(CC)C(=O)C1=C(C)NC(=S)NC1c1ccc(C)s1 (stereo not shown) | 14.5
29 | O=S(NC1CCCCC1)C12CC3CC(CC(C3)C1)C2 (stereo not shown) | -10.6
30 | O=C(CCCC(=O)N1CCN(c2ccccc2F)CC1)N1CCN(c2ccccc2F)CC1 | 0.233
31 | Cc1c(O)c(CN2CCCC2)cc2c1oc(=O)c1ccccc12 | 7
32 | CSCC[C@H](NC(=O)c1cccs1)C(=O)N1CCC2(CC1)NCCc1[nH]cnc12 | 11
33 | COc1ccccc1CN1CCCC(C(=O)N2CCCCC2)C1.O=C(O)C(=O)O (stereo not shown) | 16.7
34 | CC(=O)Nc1ccc2nc(NC(=O)CCc3ccccc3)sc2c1 | 10.7
35 | COc1ccc(N/C(N)=N/c2nc(C)cc(C)n2)c(OC)c1 | -2.86
36 | CCOC(=O)c1ccc(NC(=O)COc2ccccc2CNC2CCCC2)cc1.Cl | -17.7
37 | CCC(C(=O)NC1C(=O)N2C(C(=O)O)=C(CSc3nnc(C)s3)CSC12)c1ccccc1 (stereo not shown) | 7.13
38 | Cn1cnnc1SCC(=O)Nc1cc(S(=O)(=O)N2CCCCC2)ccc1Cl | 6.68
39 | N/C(=N\OC(=O)CCCc1ccccc1)c1ccccn1 | 18.3
40 | CC(C)(C)C(=O)Oc1ccc2cc(-c3ccc4ccccc4n3)c(=O)oc2c1 | 3.65

Row | SMILES | hERG current change (%, negative = inhibition) at 1uM [%]
41 | CNC(=O)C1C(=S)NC(N)=C(C#N)C1c1ccccc1 (stereo not shown) | 10.1
42 | Cc1ccc(S(=O)(=O)NCc2nc3nc(C)cc(C)n3n2)c(C)c1 | 1.88
43 | NC(=O)CN1C(=O)/C(=c2\sc3nc(=O)c(Cc4ccccc4)nn3c2=O)c2ccccc21 | 13.3
44 | Cc1ccc(NC(=S)NNC(=O)c2ccco2)cc1 | 1.46
45 | Cc1ccc(N2C(=O)C(Cl)=C(N3CCN(C)CC3)C2=O)c(C)c1 | 10.9
46 | COc1ccc(C(=O)/C=C/c2ccc(OC3CSC3)cc2)cc1 | 3.93
47 | CCOC(=O)C1(CCc2ccccc2)CCN(C(C)CSC)CC1 (stereo not shown) | -23.3
48 | NC(=O)c1cc2ccccc2o/c1=N/NC(=O)c1cccs1 | -7.73
49 | COc1ccccc1CC(=O)N1CCC(n2nccc2NC(=O)C2CCOC2)CC1 (stereo not shown) | 4.99
50 | O=C(O)c1ccc(OCc2ccc(C(=O)O)o2)cc1 | 21.9
51 | CC(C)C(C(=O)NC(C)(C)C)N1C(=O)c2ccccc2C1=O (stereo not shown) | 7.73
52 | CCOC(=O)c1ccc(NC(=O)NC2CC3CCC(C2)N3Cc2nnnn2Cc2ccco2)cc1 (stereo not shown) | 5.33
53 | c1ccc(CCC2CCCCN2Cc2nc(C3CC3)no2)cc1 (stereo not shown) | 10.9
54 | CC(C)=CC(=O)Nc1nnc(-c2ccccc2C)s1 | 4.9
55 | O=C(Cn1ccc2ccccc2c1=O)NCCC(=O)Nc1cccc(Cl)c1 | 7.17
56 | COc1cccc(CNC(=O)CCS(=O)(=O)c2cccc3nsnc23)c1 | 10
57 | O=C(CSc1nc(-c2ccccc2Cl)ns1)c1ccc(Cl)cc1 | 5.31
58 | CCCCn1c(N)c(C(=O)OCC2CCCO2)c2nc3ccccc3nc21 (stereo not shown) | -16.2
